Experimental data from patent US20250295648A1 (priority 2024, published 2025).

Test system: patients with moderate to severe L-DOPA-induced dyskinesia (LID) in Parkinson's disease
Assay: Phase 2a study: adverse events (frequency, intensity, seriousness, causality), tolerability

Cc1ccc(CNCC2(F)CCN(C(=O)c3ccc(F)c(Cl)c3)CC2)nc1 [NLX-112, (3-chloro-4-fluoro-phenyl)-[4-fluoro-4-{[(5-methyl-pyridin-2-ylmethyl)-amino]-methyl}piperidin-1-yl]methanone]
AE severity Death: events m (FAS, whole study, N=18): 0 | AE severity Death: subjects n (FAS, whole study, N=18): 0 | Any AE leading to death: events m (FAS, whole study, N=18): 0 | Any AE leading to death: subjects n (FAS, whole study, N=18): 0 | COVID-19: events m (FAS, whole study, N=18): 0 | COVID-19: subjects n (FAS, whole study, N=18): 0 | Cardiac disorders (SOC): events m (FAS, whole study, N=18): 1 | Cardiac disorders (SOC): subjects % (FAS, whole study, N=18): (5.6%) | Cardiac disorders (SOC): subjects n (FAS, whole study, N=18): 1 | Cataract operation: events m (FAS, whole study, N=18): 2 | Cataract operation: subjects % (FAS, whole study, N=18): (5.6%) | Cataract operation: subjects n (FAS, whole study, N=18): 1 | Condition aggravated: events m (FAS, whole study, N=18): 1 | Condition aggravated: subjects % (FAS, whole study, N=18): (5.6%) | Infections and infestations (SOC): events m (FAS, whole study, N=18): 5 | Infections and infestations (SOC): subjects % (FAS, whole study, N=18): (17%) | Infections and infestations (SOC): subjects n (FAS, whole study, N=18): 3 | Inflammatory marker increased: events m (FAS, whole study, N=18): 1 | Inflammatory marker increased: subjects % (FAS, whole study, N=18): (5.6%) | Inflammatory marker increased: subjects n (FAS, whole study, N=18): 1 | Influenza: events m (FAS, whole study, N=18): 1 | Influenza: subjects % (FAS, whole study, N=18): (5.6%) | Influenza: subjects n (FAS, whole study, N=18): 1 | Injury, poisoning and procedural complications (SOC): events m (FAS, whole study, N=18): 6 | Injury, poisoning and procedural complications (SOC): subjects % (FAS, whole study, N=18): (17%) | Respiratory tract infection: events m (FAS, whole study, N=18): 1 | Respiratory tract infection: subjects % (FAS, whole study, N=18): (5.6%) | Respiratory tract infection: subjects n (FAS, whole study, N=18): 1 | SAE Persistent or Significant Disability/Incapacity: events m (FAS, whole study, N=18): 0 | SAE Persistent or Significant Disability/Incapacity: subjects n (FAS, whole study, N=18): 0 | Urinary tract infection: events m (FAS, whole study, N=18): 2 | Urinary tract infection: subjects % (FAS, whole study, N=18): (5.6%) | Urinary tract infection: subjects n (FAS, whole study, N=18): 1 | AE severity Death: events m (down-titration (ND), N=15): 0 | AE severity Death: subjects n (down-titration (ND), N=15): 0 | Any AE leading to death: events m (down-titration (ND), N=15): 0 | Any AE leading to death: subjects n (down-titration (ND), N=15): 0 | SAE Persistent or Significant Disability/Incapacity (PSD/I): events m (down-titration (ND), N=15): 0 | SAE Persistent or Significant Disability/Incapacity (PSD/I): subjects n (down-titration (ND), N=15): 0 | AE action taken Drug Interrupted: events m (in vivo): 0 | AE action taken Drug Interrupted: subjects n (in vivo): 0 | AE severity Life-Threatening: events m (in vivo): 0 | AE severity Life-Threatening: subjects n (in vivo): 0 | AE severity Severe: events m (in vivo): 0 | AE severity Severe: subjects n (in vivo): 0 | Alopecia: events m (in vivo): 0 | Alopecia: subjects n (in vivo): 0 | Any AE leading to WFS (withdrawal from study): subjects % (in vivo): (5.6) % | Any AE leading to withdrawal from study: events m (in vivo): 3 | Any AE leading to withdrawal from study: subjects % (in vivo): (5.6%) | Any AE leading to withdrawal from study: subjects n (in vivo): 1 | Any SAE: events m (in vivo): 0 | Apathy: events m (in vivo): 1 | Apathy: subjects % (in vivo): (5.6%) | Apathy: subjects n (in vivo): 1 | Arthralgia: events m (in vivo): 1 | Arthralgia: subjects % (in vivo): (5.6%) | Arthralgia: subjects n (in vivo): 1 | Back pain: events m (in vivo): 2 | Back pain: subjects n (in vivo): 2 | Binocular eye movement disorder: events m (in vivo): 1 | Binocular eye movement disorder: subjects % (in vivo): (5.6%) | Binocular eye movement disorder: subjects n (in vivo): 1 | Condition aggravated: subjects n (in vivo): 1 | Depression: events m (in vivo): 0 | Depression: subjects n (in vivo): 0 | Diarrhoea: events m (in vivo): 1 | Diarrhoea: subjects % (in vivo): (5.6%) | Diarrhoea: subjects n (in vivo): 1 | Dissociation: events m (in vivo): 2 | Dissociation: subjects n (in vivo): 2 | Dizziness: events m (in vivo): 2 | Dizziness: subjects n (in vivo): 2 | Dizziness: subjects, % (in vivo): (11) % | Dry eye: events m (in vivo): 0 | Dry eye: subjects n (in vivo): 0 | Dry mouth: events m (in vivo): 1 | Dry mouth: subjects % (in vivo): (5.6%) | Dry mouth: subjects n (in vivo): 1 | Dyskinesia: events m (in vivo): 2 | Dyskinesia: subjects % (in vivo): (11%) | Dyskinesia: subjects n (in vivo): 2 | Dyskinesia: subjects, % (in vivo): (11) % | Ear and labyrinth disorders (SOC): events m (in vivo): 3 | Ear and labyrinth disorders (SOC): subjects % (in vivo): (11%) | Ear and labyrinth disorders (SOC): subjects n (in vivo): 2 | Erythema of eyelid: events m (in vivo): 1 | Erythema of eyelid: subjects % (in vivo): (5.6%) | Erythema of eyelid: subjects n (in vivo): 1 | Eye disorders (SOC): events m (in vivo): 3 | Eye disorders (SOC): subjects % (in vivo): (11%) | Eye disorders (SOC): subjects n (in vivo): 2 | Eye pain: events m (in vivo): 0 | Eye pain: subjects n (in vivo): 0 | Fall: events m (in vivo): 3 | Fall: subjects n (in vivo): 2 | Fatigue: events m (in vivo): 2 | Fatigue: subjects n (in vivo): 2 | Gastritis: events m (in vivo): 1 | Gastritis: subjects % (in vivo): (5.6%) | Gastritis: subjects n (in vivo): 1 | Gastrointestinal disorders (SOC): events m (in vivo): 10 | Gastrointestinal disorders (SOC): subjects % (in vivo): (39%) | Gastrointestinal disorders (SOC): subjects n (in vivo): 7 | General disorders and administration site conditions (SOC): events m (in vivo): 3 | General disorders and administration site conditions (SOC): subjects % (in vivo): (17%) | General disorders and administration site conditions (SOC): subjects n (in vivo): 3 | Hallucination: events m (in vivo): 1 | Hallucination: subjects % (in vivo): (5.6%) | Hallucination: subjects n (in vivo): 1 | Headache: events m (in vivo): 4 | Headache: events, m (in vivo): 2 and 1 | Headache: subjects % (in vivo): (17%) | Headache: subjects n (in vivo): 3 | Hyperglycaemia: events m (in vivo): 1 | Hyperglycaemia: subjects % (in vivo): (5.6%) | Hyperglycaemia: subjects n (in vivo): 1 | Hypertension: events m (in vivo): 0 | Hypertension: subjects n (in vivo): 0 | Illusion: events m (in vivo): 0 | Illusion: subjects n (in vivo): 0 | Incorrect dose administered: events m (in vivo): 1 | Incorrect dose administered: subjects % (in vivo): (5.6%) | Incorrect dose administered: subjects n (in vivo): 1 | Injury, poisoning and procedural complications (SOC): subjects n (in vivo): 3 | Insomnia: events m (in vivo): 2 | Insomnia: subjects n (in vivo): 2 | Investigations (SOC): events m (in vivo): 1 | Investigations (SOC): subjects % (in vivo): (5.6%) | Investigations (SOC): subjects n (in vivo): 1 | Irritability: events m (in vivo): 0 | Irritability: subjects n (in vivo): 0 | Lip injury: events m (in vivo): 1 | Lip injury: subjects % (in vivo): (5.6%) | Lip injury: subjects n (in vivo): 1 | Metabolism and nutrition disorders (SOC): events m (in vivo): 1 | Metabolism and nutrition disorders (SOC): subjects % (in vivo): (5.6%) | Metabolism and nutrition disorders (SOC): subjects n (in vivo): 1 | Micturition urgency: events m (in vivo): 1 | Micturition urgency: subjects % (in vivo): (5.6%)

“And” between values parts separate entries of the source, which are not always exact repeats. Equal entries are not always repeated.
